Measurements published in the supplement of paper PMC11417369.
± gives the standard deviation of the averaged measurements. Some of the results follow.

Tested on: PfAP2-I AP2 domain 3 (GST-tagged)
Assay: gcPBM binding intensity (ln(normalized median fluorescence intensity)); higher = stronger DNA binding
Procedure, shortened: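 Each value is the highest Masliner-normalised natural-log median intensity across replicate spots of either orientation of a probe. The probes were primer-extended double-stranded 36-bp intergenic genomic sequences on an Agilent 4 × 180k array, alongside negative controls, exposed for 1 h to GST-tagged P. falciparum DNA-binding domains expressed in E. coli. Bound protein was picked up with Alexa488 anti-GST antibody and scanned at 488 nm.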

Sequence	gcPBM binding intensity (ln)
TATATATATTATATATGTACATATATTTTTTTTTTT [XGTACX_site127]	8.16 ± 0.44
ATATATATATATATAACACACGTGTATATATATGTA [CACACA_site3644]	9.45 ± 0.42
TATTAATCATATAAATGTACGTATATATATTTTTCT [XGTACX_site1421]	7.61 ± 0.41
AAAAAAAAAAAATATATATATATATATATATATATA [CACACA_negctrl_site1606]	9.67 ± 0.4
CAATCATAGAAAAACAGTACGTGTAGCAAACATCCT [XGTACX_site4889]	7.76 ± 0.89
TATAATATATTATAACGTACAAATATATATATAAAA [XGTACX_site6581]	7.89 ± 0.42
CAACACTTAGATTTTAAGTTCACTGGTTAATATATA [CACACA_negctrl_site707]	7.36 ± 0.33
TTAAAAAAATATAGAGCATGCTAAAAATAAAAAAAT [TGCATGCA_site794]	7.89 ± 0.86
AATAAAAATAATATAGTGCATAATATAAGGAAAAAA	11.1 ± 0.49
GTTATACTCATCAACACACACATACAACGTGGTGTA [CACACA_site4789]	7.62 ± 0.57
AGGTCTATATAATAAGTGCATTTTTTTTTTTTTTTT [GTGCAC_site9664]	9.765 ± 0.049
TTTCTATATCTATTTAATTAACTTTTTATACTGATT [GTGCAC_negctrl_site415]	7.73 ± 0.44
GCATCTCATTTGTGATGTACTATATTATCCGTTTTT [XGTACX_site7576]	7.53 ± 0.64
ATCAACAAAACATACACACACATATATATATATATA [CACACA_site2989]	9.29 ± 0.29
CATATCATTGATTATAGTACACATACCATTTTTTAT [XGTACX_site6572]	7.9 ± 0.51
CACATAAAAAAATAAACACACATATGTATTTATATA [CACACA_site5718]	7.46 ± 0.4
TGCAATGGAGCATAAAGTACATATAATTGTATTTTT [XGTACX_site7349]	7.74 ± 0.47
TAGAATAATCCTTACACACACACACCCACGAATAAA [CACACA_site483]	8.52
AATACAGAGGAAAATACACACGTATATATATAAATA [CACACA_site9125]	7.66 ± 0.67
TTTTAAAAAAAAAAAAAAAAAAAAAAAAAAAAAAAA [CACACA_negctrl_site1343]	8.31 ± 0.92
TGTTTTTTTATTTTCACACATAATCCAATTATACAT [CACACA_site6070]	8.22 ± 0.55
TTTTAAAATTATTAGGTGCATATTTATTCTATATTT	10 ± 0.35
AAAAAAAAAAGACACACACACACAAATACATACACA [CACACA_site6472]	7.96 ± 0.13

Sequence	gcPBM binding intensity (ln)
TGAATAAAGATATATACACACATATAGGTATATATC [CACACA_site6870]	7.49 ± 0.52
TGCTTATATTTTTATACACACAAGATACTTTTTGTT [CACACA_site1535]	7.86 ± 0.59
ATCTAAATAAAGTTAACACACACATAATATATATAT [CACACA_site8055]	8.99 ± 0.071
TTTTTTTCTTTTGGGAGTACCAACATTTTCACATAT [XGTACX_site1371]	8.13 ± 0.6
CTATGCCCCATATAAACACACAAATAAAAAGAATAT [CACACA_site2681]	8.14 ± 0.81
AAAAAAAAAAAATATGTACACACATATATAATACAT [CACACA_site8473]	7.82 ± 0.29
TATATGTTTGAATATACACACAACATATTTATATAT [CACACA_site7832]	7.47 ± 0.59
TTTTTTGTTAAAAGAGTGCAAATTTTTAAAGATTTG [GTGCAC_site9502]	10.2 ± 0.3
AGTAATATAATATAAGCACACGTGTATTTATTTAGG [CACACA_site7921]	8.21 ± 0.54
AAAAAAAAAAAAAAATACAAGCACATTTATATAAGC [GTGCAC_negctrl_site695]	8.46 ± 0.62
AAATACATTAAAATGACATGCAGATATATATCAAAA [TGCATGCA_site477]	7.8 ± 0.69
TATATATCAATATTTACACACATGCGCCCACATAAA [CACACA_site7185]	8.38 ± 0.31
ATAGACAGCGCACAAACACACAAACACAGACCCCCA [CACACA_site4409]	8.99 ± 0.099
TTTTTTTTATGGTACACACACGCGTATGGTTGCACG [CACACA_site1877]	8.69 ± 0.39
TTATTTTTGTTCATAGTGCATAGAATTTATACATAT	9.91 ± 0.33
TTGTAAATTTCTGGTTATATATTTTATGTATATGTT [CACACA_negctrl_site1443]	7.6 ± 0.62
TTTTTTTCTTTTCAAACACACAATTGGTATATATCA [CACACA_site7542]	7.74 ± 0.71
ATTTATTTATTGGCACGTACAAATTTGTGTTTTCCA [XGTACX_site6978]	8.54 ± 0.53
AATTATATATTATAATGTACATATATATAACTATAC [XGTACX_site1865]	7.76 ± 0.37
ATAAAGGAAATTACAAGTACAAATAAGATAAAATAA [XGTACX_site4514]	7.86 ± 0.52
AAAGAAATGAAATATACACACATACATAAATACATA [CACACA_site6081]	7.59 ± 0.39
TATAAAAAAAGAGGAGGGATGGTATACTTGTGGTTT [TGCATGCA_negctrl_site49]	7.7 ± 0.94
